{"source": "paper PMC4336329", "about": "(PLoS ONE, 2015)", "note": "In all, about 310,000 compounds went through this assay and about 2,200 (0.71%) showed an effect of 50% or more. Effects have a minus sign here. The list shows a part of the results."}
{"target": "human ether-à-go-go-related gene (hERG) potassium channel (human, UniProt Q12809)", "sequence (Q12809 whole entry, looked up)": "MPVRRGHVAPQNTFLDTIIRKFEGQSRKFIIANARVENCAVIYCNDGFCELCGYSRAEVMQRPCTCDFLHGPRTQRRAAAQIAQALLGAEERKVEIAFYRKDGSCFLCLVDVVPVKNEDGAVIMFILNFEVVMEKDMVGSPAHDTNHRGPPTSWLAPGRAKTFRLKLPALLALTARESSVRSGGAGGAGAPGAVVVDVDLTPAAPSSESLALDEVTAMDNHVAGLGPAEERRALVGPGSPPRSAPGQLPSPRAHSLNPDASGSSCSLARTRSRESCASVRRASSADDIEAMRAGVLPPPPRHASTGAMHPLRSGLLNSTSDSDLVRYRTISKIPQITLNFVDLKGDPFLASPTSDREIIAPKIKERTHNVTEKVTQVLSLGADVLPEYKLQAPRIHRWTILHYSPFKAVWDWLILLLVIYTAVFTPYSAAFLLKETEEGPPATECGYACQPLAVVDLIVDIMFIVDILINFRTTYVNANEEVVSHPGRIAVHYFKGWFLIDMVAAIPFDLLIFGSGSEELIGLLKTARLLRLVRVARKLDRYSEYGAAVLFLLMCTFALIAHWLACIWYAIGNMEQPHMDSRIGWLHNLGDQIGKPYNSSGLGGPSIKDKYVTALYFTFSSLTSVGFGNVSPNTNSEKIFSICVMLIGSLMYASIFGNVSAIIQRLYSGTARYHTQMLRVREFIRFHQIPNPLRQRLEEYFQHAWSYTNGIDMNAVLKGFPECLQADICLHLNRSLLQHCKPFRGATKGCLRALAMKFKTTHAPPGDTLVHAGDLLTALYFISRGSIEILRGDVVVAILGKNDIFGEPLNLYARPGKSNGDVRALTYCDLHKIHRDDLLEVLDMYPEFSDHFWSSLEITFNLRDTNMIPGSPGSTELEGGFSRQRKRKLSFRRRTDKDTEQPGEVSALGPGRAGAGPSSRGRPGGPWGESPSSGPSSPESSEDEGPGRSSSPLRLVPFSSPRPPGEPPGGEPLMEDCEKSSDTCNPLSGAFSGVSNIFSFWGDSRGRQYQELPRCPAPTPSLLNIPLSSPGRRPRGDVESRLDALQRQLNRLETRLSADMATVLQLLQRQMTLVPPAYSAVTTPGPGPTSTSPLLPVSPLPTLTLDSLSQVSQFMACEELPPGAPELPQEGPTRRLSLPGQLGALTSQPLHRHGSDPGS", "test": "primary screen, population patch clamp on CHO cells stably expressing hERG", "units": {"hERG current change (%, negative = inhibition) at 1uM": "%"}}
{"smiles": "CC(C)(C)NC(=O)C(c1ccc(O)cc1)N(C(=O)CCC(=O)Nc1nccs1)c1cccc(F)c1", "note": "(stereo not drawn)", "hERG current change (%, negative = inhibition) at 1uM": 12.7}
{"smiles": "CN1CCN(c2nc3c(c(=O)[nH]2)CCC3)CC1", "hERG current change (%, negative = inhibition) at 1uM": 18.2}
{"smiles": "OCCCNCc1cccc2ccccc12", "hERG current change (%, negative = inhibition) at 1uM": 8.15}
{"smiles": "Cc1ccc(C(=O)NNC2CC(=O)N(c3ccc4c(c3)OCCO4)C2=O)cc1", "note": "(stereo not drawn)", "hERG current change (%, negative = inhibition) at 1uM": 0.129}
{"smiles": "O=C(CCn1cnnn1)N1CCCC(Nc2ccc(F)cc2)C1", "note": "(stereo not drawn)", "hERG current change (%, negative = inhibition) at 1uM": 5.33}
{"smiles": "CN(C)c1ccc(C2SCCN2C(=O)c2ccc([N+](=O)[O-])cc2)cc1", "note": "(stereo not drawn)", "hERG current change (%, negative = inhibition) at 1uM": -25.9}
{"smiles": "COCCCNC(=O)c1ccc(Cn2c(=O)c3ccccc3n(Cc3ccccc3C#N)c2=O)cc1", "hERG current change (%, negative = inhibition) at 1uM": 8.63}
{"smiles": "Cc1ccc(NC(=O)COC(=O)C2C3CC4OC(=O)C2C4C3)cc1", "note": "(stereo not drawn)", "hERG current change (%, negative = inhibition) at 1uM": 6.18}
{"smiles": "COC(=O)c1ccc(/C=C(/NC(=O)c2ccccc2)C(=O)N2CCOCC2)cc1", "hERG current change (%, negative = inhibition) at 1uM": 18}
{"smiles": "OCCOc1cccc(CN2CCC(CO)(CCOc3ccccc3)CC2)c1", "hERG current change (%, negative = inhibition) at 1uM": -2.72}
{"smiles": "COc1ccc(NC(=O)c2sc3nc(-c4cccnc4)ccc3c2N)cc1OC", "hERG current change (%, negative = inhibition) at 1uM": 4.52}
{"smiles": "Cc1ccc(N2CCN(c3cc(C)nc4nc(C)nn34)CC2)c(C)c1", "hERG current change (%, negative = inhibition) at 1uM": -32.9}
{"smiles": "O=C(COC(=O)CCN1C(=O)c2ccccc2C1=O)Nc1ccccc1[N+](=O)[O-]", "hERG current change (%, negative = inhibition) at 1uM": 16.6}
{"smiles": "CCOc1ccc(CN2CCN(CC3=Cc4cccc(OC)c4OC3)CC2CCO)cc1", "note": "(stereo not drawn)", "hERG current change (%, negative = inhibition) at 1uM": -71.4}
{"smiles": "Cn1c(Cn2c(=O)sc3ccccc32)nnc1SCc1ccccc1", "hERG current change (%, negative = inhibition) at 1uM": -1.16}
{"smiles": "CCOC(=O)Cn1c(=O)c(-c2cc(Br)ccc2N)nc2ccccc21", "hERG current change (%, negative = inhibition) at 1uM": 13.1}
{"smiles": "Cc1ccccc1N1CCN(Cc2cc3c(cc2[N+](=O)[O-])OCO3)CC1", "hERG current change (%, negative = inhibition) at 1uM": 12.4}
{"smiles": "CC1(c2cccc(Br)c2)NC(=O)N(CC(=O)N2CCc3ccccc32)C1=O", "note": "(stereo not drawn)", "hERG current change (%, negative = inhibition) at 1uM": 3.34}
{"smiles": "CC(C)(C)C(=O)OC[N+](C)(C)CCOC(=O)C(O)(c1ccccc1)C1CCCC1.[Cl-]", "note": "(stereo not drawn)", "hERG current change (%, negative = inhibition) at 1uM": 12.7}
{"smiles": "Cc1ccccc1-c1nnc(SCC(=O)Nc2ccc(Cl)cc2)n1N", "hERG current change (%, negative = inhibition) at 1uM": 12.5}
{"smiles": "CCOC(=O)Cc1csc(NC(=O)Cn2c(=O)oc3ccccc32)n1", "hERG current change (%, negative = inhibition) at 1uM": 14.5}
{"smiles": "COc1cccc(CC2(CO)CCCN(Cc3[nH]c4ccc(C)cc4c3C)C2)c1", "note": "(stereo not drawn)", "hERG current change (%, negative = inhibition) at 1uM": -6.47}
{"smiles": "CC(=O)Nc1cccc2ncccc12", "hERG current change (%, negative = inhibition) at 1uM": 10.2}
{"smiles": "CCCCc1nnc(NC(=O)CSc2nc(=O)cc(N)n2-c2cccc(C)c2)s1", "hERG current change (%, negative = inhibition) at 1uM": 6.36}
{"smiles": "Cc1cc(C(=O)Nc2c(C)n(C)n(-c3ccccc3)c2=O)c2ccccc2n1", "hERG current change (%, negative = inhibition) at 1uM": 7.33}
{"smiles": "CCOc1ccc(CN2CCN(C/C=C/c3ccc(OC)cc3)CC2CCO)cc1", "note": "(stereo not drawn)", "hERG current change (%, negative = inhibition) at 1uM": -77.1}
{"smiles": "Cc1ccc(C(O)CCc2ccc(N)cc2)cc1", "note": "(stereo not drawn)", "hERG current change (%, negative = inhibition) at 1uM": 8.65}
{"smiles": "O=C(Nc1cccc(-c2nc3ccccc3o2)c1)c1ccc(N2C(=O)C3C4C=CC(C4)C3C2=O)cc1", "note": "(stereo not drawn)", "hERG current change (%, negative = inhibition) at 1uM": -1.08}
{"smiles": "O=C(CSc1nc(-c2ccccc2)cc(C(F)(F)F)n1)NCc1ccco1", "hERG current change (%, negative = inhibition) at 1uM": 1.13}
{"smiles": "CCC(=O)N/C(=N\\OCc1ccc(F)cc1)c1nonc1NC(=O)CC", "hERG current change (%, negative = inhibition) at 1uM": 16.8}
{"smiles": "CCOC(=O)c1nnn(CC(=O)N2N=C(c3ccccc3)CC2c2ccccc2)c1C(=O)OCC", "note": "(stereo not drawn)", "hERG current change (%, negative = inhibition) at 1uM": 6.3}
{"smiles": "CCn1nc(C)c(CN2CCC(n3nccc3NC(=O)Cc3ccccc3)CC2)c1C", "hERG current change (%, negative = inhibition) at 1uM": 10.3}
{"smiles": "O=C(NN=C(c1ccccc1)c1ccccc1)C(CCl)C1CCCCC1", "note": "(stereo not drawn)", "hERG current change (%, negative = inhibition) at 1uM": 2.47}
{"smiles": "Cc1cc(OCC(=O)N2C[C@H]3C[C@@H](C2)c2cccc(=O)n2C3)c2c(C)cc(=O)oc2c1", "hERG current change (%, negative = inhibition) at 1uM": 3.15}
{"smiles": "O=C(COc1ccc(C(=O)NCCc2ccccc2)cc1)Nc1ccccc1", "hERG current change (%, negative = inhibition) at 1uM": 12.9}
{"smiles": "Cc1csc(SCC(=O)Nc2sc3c(c2C#N)CCC3)n1", "hERG current change (%, negative = inhibition) at 1uM": -1.64}
{"smiles": "COc1ccccc1Nc1nc(NCCO)nc(N2CCCC2)n1", "hERG current change (%, negative = inhibition) at 1uM": 0.663}
{"smiles": "COc1ccc(S(=O)(=O)NNC(=O)C23CC4CC(CC(C4)C2)C3)cc1", "hERG current change (%, negative = inhibition) at 1uM": -1.16}
{"smiles": "Fc1ccccc1NC(=S)N(CCN1CCCCC1)Cc1ccco1", "hERG current change (%, negative = inhibition) at 1uM": -14.1}
{"smiles": "Cc1ccc(NC(=O)CN(c2cc(C)cc(C)c2)S(=O)(=O)c2c(C)noc2C)nc1", "hERG current change (%, negative = inhibition) at 1uM": -6.14}
{"smiles": "CCOC(=O)c1[nH]c2ccccc2c1NC(=O)CC", "hERG current change (%, negative = inhibition) at 1uM": 9.17}
{"smiles": "O=C(NC(=O)c1cc[nH+]cc1)NC(c1ccccc1)c1ccccc1.[Cl-]", "hERG current change (%, negative = inhibition) at 1uM": 7.78}
{"smiles": "CCCN(C(=O)COC(=O)CCOc1ccc(C)cc1)c1c(N)n(Cc2ccccc2)c(=O)[nH]c1=O", "hERG current change (%, negative = inhibition) at 1uM": -6.19}
{"smiles": "CCOC(=O)N1CCN(C(=O)COc2ccc3ccccc3c2Br)CC1", "hERG current change (%, negative = inhibition) at 1uM": 14.8}
{"smiles": "COCc1cccc(N2C(=O)CC(C3C=C(C)C4C(=O)N(c5cccc(COC)c5)C(=O)C4C3)C2=O)c1", "note": "(stereo not drawn)", "hERG current change (%, negative = inhibition) at 1uM": 2.85}
{"smiles": "O=C(CCSc1nnc(-c2ccncc2)o1)Nc1ccc(F)cc1", "hERG current change (%, negative = inhibition) at 1uM": -4.44}
{"smiles": "COCCn1nnnc1C(c1ccc(Cl)cc1)N1CCSCC1.Cl", "note": "(stereo not drawn)", "hERG current change (%, negative = inhibition) at 1uM": 0.657}
{"smiles": "COC(=O)c1ccccc1NC(=O)N1c2ccccc2Sc2ccccc21", "hERG current change (%, negative = inhibition) at 1uM": -0.806}
{"smiles": "C=C1CC2C3CC[C@@]4(OCOC45COCO5)[C@@]3(C)C(O)CC2[C@@]2(C)CCC(=O)C=C12", "note": "(stereo partly drawn)", "hERG current change (%, negative = inhibition) at 1uM": 13.6}
{"smiles": "Cc1ccc(S(=O)(=O)Cc2ccccc2Cl)cc1", "hERG current change (%, negative = inhibition) at 1uM": 11.8}
{"smiles": "CC(C)N1CCC(N2CCN(Cc3cnc(-c4ccccc4)s3)CC2CCO)CC1", "note": "(stereo not drawn)", "hERG current change (%, negative = inhibition) at 1uM": 5.1}
{"smiles": "CC(C)CNC(=S)N(Cc1ccco1)Cc1cc2cc3c(cc2[nH]c1=O)OCCO3", "hERG current change (%, negative = inhibition) at 1uM": 7.5}
{"smiles": "Cc1cc(S(=O)(=O)Nc2ccc(C(=O)N3CCN(c4ccccc4O)CC3)cc2)ccc1F", "hERG current change (%, negative = inhibition) at 1uM": 5.34}
{"smiles": "O=C(Nc1ccccc1)N(Cc1ccccc1)Cc1ccccc1", "hERG current change (%, negative = inhibition) at 1uM": -3.85}
